{"source": "PubChem BioAssay AID1460", "about": "(National Center for Advancing Translational Sciences (NCATS), 2008)", "note": "Where “and” joins values, the source holds several entries; their conditions need not be identical. Equal entries are not always repeated. About 5,800 (2.1%) of roughly 270,000 compounds were called active. The shares of active, inactive and inconclusive entries below differ from those in the screen. Calls come from the whole dose curve; as a rule, active = well fitted inhibition curve with a large enough effect; inconclusive = small, poorly fitted or top-dose-only effect; inactive = flat fitted curve, though single readings scatter. Where the call is inconclusive, the potency comes from a doubtful curve fit. % is set by controls: 0 for no effect and ±100 for the full control effect; potency is the fitted concentration of half-maximal effect; tags give direction and shape of the fitted curve.", "data": [{"target": "Microtubule-associated protein tau (Homo sapiens) (UniProt P10636)", "sequence (P10636 whole entry, looked up)": "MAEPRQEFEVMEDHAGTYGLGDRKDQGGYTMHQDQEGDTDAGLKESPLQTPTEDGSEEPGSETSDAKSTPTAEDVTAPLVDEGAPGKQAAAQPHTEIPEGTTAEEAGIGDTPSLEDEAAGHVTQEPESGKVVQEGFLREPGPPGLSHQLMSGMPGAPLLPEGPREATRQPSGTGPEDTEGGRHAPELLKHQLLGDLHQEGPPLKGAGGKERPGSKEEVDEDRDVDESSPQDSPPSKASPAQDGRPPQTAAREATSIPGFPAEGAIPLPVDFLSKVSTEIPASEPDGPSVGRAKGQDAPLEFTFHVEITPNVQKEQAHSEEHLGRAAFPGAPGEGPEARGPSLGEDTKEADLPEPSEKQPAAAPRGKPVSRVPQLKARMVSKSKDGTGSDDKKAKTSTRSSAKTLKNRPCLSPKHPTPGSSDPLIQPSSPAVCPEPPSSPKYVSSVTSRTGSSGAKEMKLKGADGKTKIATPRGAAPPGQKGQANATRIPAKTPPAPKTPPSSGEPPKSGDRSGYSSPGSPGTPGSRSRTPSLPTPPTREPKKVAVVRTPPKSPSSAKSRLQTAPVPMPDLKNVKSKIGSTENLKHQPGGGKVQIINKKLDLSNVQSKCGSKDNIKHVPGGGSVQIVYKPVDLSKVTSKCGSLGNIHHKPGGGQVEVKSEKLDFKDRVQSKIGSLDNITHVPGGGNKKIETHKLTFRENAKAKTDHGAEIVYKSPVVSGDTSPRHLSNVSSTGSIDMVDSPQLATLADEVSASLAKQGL", "assay": "qHTS for Inhibitors of Tau Fibril Formation, Thioflavin T Binding; note: nearly all actives have a fitted effect of over 55% in size", "conditions": "recombinant tau K18 P301L, heparin-induced fibrillization, ThT fluorescence; series mostly up to 57.4 µM; activity, negative = inhibition: at the top concentration", "summary_of_the_method": "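Fibril formation assay: tau K18 P301L at 15 uM with trace Alexa 594 label, heparin inducer 20 uM, pH 7 sodium acetate buffer, 37 C for 6 hr; endpoint ThT signal.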", "values": [{"smiles": "NC(=O)c1ccsc1N", "Potency": "active: 20 µM"}, {"smiles": "O=C(CCCN1C(=O)/C(=C/c2cccc(Br)c2)SC1=S)Nc1cccnc1", "Potency": "inconclusive: 12.6 µM [inhibitor, partial curve]"}, {"smiles": "C/C(=N\\OCc1ccc(C#N)cc1)c1ccccc1", "activity, negative = inhibition": "inactive: -12%"}, {"smiles": "COc1cc(/C=N\\Nc2nc3ccccc3[nH]2)cc(OC)c1OC", "Potency": "inconclusive: 7.94 µM [inhibitor, single point]"}, {"smiles": "Cc1ccc(CNC(=O)c2ccc3c(c2)CCN3S(=O)(=O)c2ccccc2)cc1", "activity, negative = inhibition": "inactive: 6.56%"}, {"smiles": "COc1ccc(C2c3c(oc4ccccc4c3=O)C(=O)N2c2ccccn2)cc1OC", "note": "(stereo unspecified)", "activity, negative = inhibition": "inactive: 10.6%"}, {"smiles": "O=C(NC(=S)Nc1ccc(Br)cn1)c1cccs1", "activity, negative = inhibition": "inactive: -0.61%"}, {"smiles": "COc1ccc(Nc2nc(-c3ccc4c(c3)NC(=O)CO4)cs2)cc1", "Potency": "active: 7.94 µM"}, {"smiles": "Cc1ccc(OCCSc2nnc(-c3ccncc3)n2C)cc1", "Potency": "inconclusive: 28.2 µM [inhibitor, partial curve]"}, {"smiles": "COc1ccc(/C(C#N)=C/c2ccccn2)cc1", "Potency": "inconclusive: 17.8 µM [inhibitor, partial curve]"}, {"smiles": "COCC(=O)N(C)c1nnc(-c2ccc([N+](=O)[O-])cc2)s1", "Potency": "inconclusive: 3.55 µM [inhibitor, full curve]"}, {"smiles": "CCOC(=O)COc1ccc(S(=O)(=O)NCCC2=CCCCC2)cc1", "activity, negative = inhibition": "inactive: -3.07%"}, {"smiles": "CCOC(=O)COc1ccc(/C=C(\\C#N)c2nc3ccc(C)cc3[nH]2)cc1OC", "Potency": "inconclusive: 1.58 µM [inhibitor, full curve, poor fit]"}, {"smiles": "CCOc1ccc(C(=O)c2ccc([N+](=O)[O-])cc2Cl)cc1", "Potency": "inconclusive: 31.6 µM [inhibitor, single point]"}, {"smiles": "O=C(Oc1ccc2c(=O)c(Cl)coc2c1)c1ccncc1", "Potency": "inconclusive: 14.1 µM [inhibitor, partial curve]"}, {"smiles": "O=C(O)Cc1nn(Cc2ccc(Br)cc2F)c(=O)c2ccccc12", "activity, negative = inhibition": "inactive: -3.18%"}, {"smiles": "CC(C)NC(=O)NC(=O)COC(=O)Cc1ccsc1", "activity, negative = inhibition": "inactive: -6.26%"}, {"smiles": "Cc1ccc2c(c1)-c1onc(C(=O)N(C)c3cccc(C(F)(F)F)c3)c1CO2", "Potency": "inconclusive: 3.16 µM [inhibitor, full curve, poor fit]"}, {"smiles": "Cc1ccc(-c2csc(NC(=O)Cc3ccc(F)cc3)n2)o1", "Potency": "inconclusive: 22.4 µM [inhibitor, partial curve]"}, {"smiles": "[O-]/[N+](=C/c1ccc(F)cc1)c1ccc(Cl)cc1", "Potency": "active: 31.6 µM"}, {"smiles": "Cc1cccc(NC(=O)CSc2nc(-c3cccc(C)c3)nc3c2Cc2c(CO)cnc(C)c2O3)c1", "activity, negative = inhibition": "inactive: -4.23%"}, {"smiles": "C/C(=N\\Nc1nc(C)cc(C)n1)c1ccc(N2CCOCC2)cc1", "Potency": "inconclusive: 44.7 µM [inhibitor, single point]"}, {"smiles": "Cc1cc(/C=C2/C(=O)N(C)C(=S)N2C)c(C)n1C1CC1", "Potency": "inconclusive: 22.4 µM [inhibitor, partial curve]"}, {"smiles": "CCCC1=NN(c2ccc([N+](=O)[O-])cc2)C(=O)/C1=C/N(C)C", "Potency": "inconclusive: 28.2 µM [inhibitor, partial curve]"}, {"smiles": "N#CC1=C(N)SC(N)=C(C#N)C1c1ccc([N+](=O)[O-])cc1", "Potency": "active: 20 µM"}, {"smiles": "Cc1cccc(NC(=O)CC2Nc3cccc4cccc(c34)NC2=O)c1", "note": "(stereo unspecified)", "Potency": "inconclusive: 15.8 µM [inhibitor, partial curve] and inconclusive: 8.91 µM [inhibitor, partial curve]"}, {"smiles": "O=C(CSc1nc2ccccc2[nH]1)N1CCN(c2ccc(F)cc2)CC1", "activity, negative = inhibition": "inactive: -12%"}, {"smiles": "COc1ccccc1NC1=C(Cl)C(=O)N(c2ccccc2)C1=O", "Potency": "inconclusive: 17.8 µM [inhibitor, single point]"}, {"smiles": "CC(=O)c1ccc(S(=O)(=O)Nc2ccc(-c3ccc(N4CCCCC4)nn3)cc2)cc1", "Potency": "inconclusive: 1.58 µM [inhibitor, full curve, poor fit]"}, {"smiles": "Cc1cc2nc(CS)[nH]c2cc1C", "Potency": "active: 31.6 µM"}, {"smiles": "Cc1ccc(N(C)C(=O)CC(C)S(=O)(=O)c2ccc3c(c2)NC(=O)CO3)cc1", "note": "(stereo unspecified)", "activity, negative = inhibition": "inactive: 6.07%"}, {"smiles": "CCc1ccc(NC(=O)Cn2ccn(-c3ccc(OC)cc3)c(=O)c2=O)cc1", "activity, negative = inhibition": "inactive: -14.7%"}, {"smiles": "CCOC(=O)Cc1csc(NC(=O)CCNS(=O)(=O)c2ccc3c(c2)CCC(=O)N3)n1", "Potency": "inconclusive: 17.8 µM [inhibitor, single point]"}, {"smiles": "O=C(Cc1ccc(Cl)cc1)c1c(O)cc(O)cc1O", "Potency": "inconclusive: 28.2 µM [inhibitor, partial curve]"}, {"smiles": "COc1cc(C2C(C#N)=C(N)Oc3n[nH]c(-c4cccs4)c32)cc(OC)c1O", "note": "(stereo unspecified)", "Potency": "inconclusive: 17.8 µM [inhibitor, partial curve]"}, {"smiles": "N[C@@H](Cc1c[nH]c2ccc(O)cc12)C(=O)O", "Potency": "active: 28.2 µM"}, {"smiles": "CCCNC(=O)OC[C@H]1O[C@H](CCO/N=C/C[C@@H]2C=C[C@H](OC(C)=O)[C@@H](COC(C)=O)O2)C=C[C@@H]1Oc1ccc(OC)cc1", "Potency": "inconclusive: 28.2 µM [inhibitor, single point]"}, {"smiles": "C/C(Cn1nnc([N+](=O)[O-])n1)=N\\NC(=O)c1ccccc1", "activity, negative = inhibition": "inactive: -5.79%"}, {"smiles": "C/C(=N\\Nc1ccccn1)c1ccc(N2CCOCC2)cc1", "Potency": "inconclusive: 15.8 µM [inhibitor, partial curve]"}, {"smiles": "Cc1ccc(/C=C/C(=O)NCc2cccs2)o1", "Potency": "inconclusive: 15.8 µM [inhibitor, partial curve, poor fit]"}, {"smiles": "COc1cccc(Nc2nc3ccc(OC)cc3s2)c1", "Potency": "active: 12.6 µM"}, {"smiles": "COc1ccc(N2CCN(C(=O)CSc3nnc(-c4cc5ccccc5cc4O)n3C)CC2)cc1", "Potency": "inconclusive: 10 µM [inhibitor, partial curve]"}, {"smiles": "COc1cc(NC(=O)Nc2cccc(Cl)c2)c(OC)cc1NC(=O)CN1CCCCC1", "Potency": "inconclusive: 25.1 µM [inhibitor, partial curve]"}, {"smiles": "O=S(=O)(CCN1CCN(C(c2ccccc2)c2ccccc2)CC1)C(F)(F)F", "Potency": "inconclusive: 1.12 µM [inhibitor, single point]"}, {"smiles": "CCn1c(C)nc2cc(C(=O)N=Nc3c(O)[nH]c4ccccc34)ccc21", "Potency": "inconclusive: 2.24 µM [inhibitor, partial curve]"}, {"smiles": "C=CCNC(=O)c1ccccc1CCc1ccccc1", "activity, negative = inhibition": "inactive: -9.51%"}, {"smiles": "Cc1cccc(N2CCN(c3ccc(N4C(=O)CCCC4=O)cc3[N+](=O)[O-])CC2C)c1", "note": "(stereo unspecified)", "Potency": "inconclusive: 25.1 µM [inhibitor, partial curve]"}, {"smiles": "O=C(Nc1ccccc1)Nc1ccccc1NS(=O)(=O)c1cccs1", "activity, negative = inhibition": "inactive: -1.22%"}, {"smiles": "O=C(N/N=C\\C=C\\c1ccc2c(c1)OCO2)c1ccc(F)cc1", "Potency": "inconclusive: 1.12 µM [inhibitor, full curve]"}, {"smiles": "COc1ccccc1OCCN1C(=O)S/C(=C\\c2ccco2)C1=O", "Potency": "inconclusive: 20 µM [inhibitor, single point]"}, {"smiles": "CC(=O)Nc1ccc(C(=O)Nc2ccc3c(c2)OCO3)cc1", "Potency": "inconclusive: 25.1 µM [inhibitor, partial curve]"}, {"smiles": "CCN1C/C(=C/c2ccc(OC)c(O)c2)C(=O)/C(=C/c2ccc(OC)c(O)c2)C1", "Potency": "active: 14.1 µM"}, {"smiles": "CCOC(=O)N1CCC(=NNc2ccc(S(=O)(=O)N3CCOCC3)cc2[N+](=O)[O-])CC1", "Potency": "inconclusive: 22.4 µM [inhibitor, partial curve]"}, {"smiles": "COc1cc(/C=N/NC(=O)c2cccnc2)ccc1OS(=O)(=O)c1cc(C)ccc1C", "activity, negative = inhibition": "inactive: -13.4%"}, {"smiles": "O=C(COC(=O)c1ccco1)Nc1nc2ccc([N+](=O)[O-])cc2s1", "Potency": "inconclusive: 17.8 µM [inhibitor, partial curve]"}, {"smiles": "Cc1ccc(NC(=O)CSc2nnc(COc3ccc(Cl)cc3)o2)cc1", "Potency": "inconclusive: 39.8 µM [inhibitor, single point]"}, {"smiles": "Cc1cc(C(=O)COc2ccc(Cl)cc2Br)c(C)n1C", "Potency": "inconclusive: 15.8 µM [inhibitor, partial curve, poor fit]"}, {"smiles": "C#CCCCO/N=C1/C[C@@H](O)[C@@H](O)[C@@H]2[C@@H]3C(=O)N(C(C)(C)C)C(=O)[C@H]3CC[C@@H]12", "activity, negative = inhibition": "inactive: -4.25% [at 11.5 µM]"}, {"smiles": "COc1ccc(S(=O)(=O)N(CC(=O)N2CCN(c3ccccc3OC)CC2)c2ccccc2)cc1", "Potency": "inconclusive: 28.2 µM [inhibitor, partial curve, poor fit]"}, {"smiles": "CCCN1CN(c2ccccc2)C(=S)N(c2ccccc2)C1", "Potency": "inconclusive: 17.8 µM [inhibitor, single point]"}, {"smiles": "CN1c2ccccc2N(C)C1(C)c1cccc2ccccc12", "Potency": "active: 15.8 µM"}, {"smiles": "COC(=O)c1cccc(NC(=O)CSc2nnc(COc3cccc(C)c3)n2C)c1", "Potency": "inconclusive: 25.1 µM [inhibitor, single point]"}, {"smiles": "CC(C)C(=O)Nc1nnc(S(=O)(=O)N(C)Cc2ccc(F)cc2)s1", "activity, negative = inhibition": "inactive: 6.49%"}, {"smiles": "CCOc1ccccc1NC(=O)C1CCCN(c2ncnc3onc(-c4ccc(F)cc4)c23)C1", "note": "(stereo unspecified)", "activity, negative = inhibition": "inactive: -4.13%"}, {"smiles": "Cc1ccc(-c2oc3ccccc3c(=O)c2OCC(=O)O)cc1", "activity, negative = inhibition": "inactive: -6.39%"}, {"smiles": "Nc1ccc(C(=O)Nc2nc3ccccc3s2)cc1", "activity, negative = inhibition": "inactive: -7.86%"}, {"smiles": "Cc1ccc(C(=O)OC2=C(C(=O)c3ccccc3)N(C)S(=O)(=O)c3ccccc32)cc1", "Potency": "inconclusive: 11.2 µM [inhibitor, partial curve, poor fit]"}, {"smiles": "COC(=O)CC(=O)CSc1nc2cc(C(=O)NC(C)C)ccc2c(=O)n1CCc1ccccc1", "activity, negative = inhibition": "inactive: 4.34%"}, {"smiles": "COc1cccc(-c2cc(=O)c3cc(NC(=O)c4ccc(N(C)C)cc4)ccc3[nH]2)c1", "Potency": "inconclusive: 1.58 µM [inhibitor, full curve]"}, {"smiles": "S=c1[nH]nc(Cc2sc(-c3ccccc3)nc2-c2ccccc2)o1", "activity, negative = inhibition": "inactive: -18%"}, {"smiles": "Nc1c(NC(=O)CC[n+]2ccccc2)cccc1[N+](=O)[O-]", "Potency": "inconclusive: 22.4 µM [inhibitor, single point]"}]}]}
